Experimental data taken from the RNAGym collection of RNA variant scans (doi:10.7554/elife.90254).
Read counts are not given, so values of variants with three or more changes are uncertain.

B1: LINE1-full (parent)
chain: UACGUAGGUGGUUUUCCCCUGAUAGUGCUAAGGGGGCCUGGAAGUUUGGACUGGGCAGAGCUCAACACAGCGUGGCAAAGUGGCUGUGGCUAGACUGCCUCUCUGGAUUCCUCGUCACUCAGCAGGGCAUCUCUGAGAGAAAUGCC

Variants of: B1
Assay: self-cleavage, relative activity (ratio to wild type); higher = more cleavage; in vitro, sequencing; the parent is a self-cleaving ribozyme

| Variant | self-cleavage |
| --- | --- |
| U23C U47G A78G U85C | 0.77 |
| A22C U96C A138C | 0 |
| A22G U47A U85C A129G | 0.63 |
| A22G U52C A77U | 1.98 |
| A22G A107U A124G | 1.11 |
| U23C A50G A64G C101U | 0.44 |
| A22G U130C A136G | 0.66 |
| A22G A79G C146A | 0.82 |
| A22G A79G A142G | 1.07 |
| A22U A57G U85C | 0 |
| A22G U23A U29A U47C U102A | 0.92 |
| A22G U45C U81A | 1.77 |
| A22G U52C G75A | 0.96 |
| U23C A78G U115A A121G C123A | 1.1 |
| G21A G25A G126A A141G | 1.08 |
| U20G C110A A140G | 1.16 |
| A22U G35C U91C A142G U143C | 1.45 |
| U20G A57G U73A | 0.42 |
| U20G A43G A138G | 0.66 |
| G21A U109A U115C A124U | 1.09 |
| U23C U29C G89A | 0.07 |
| G21A A94G U115C A129G | 0 |
| A22G G55A U115A A140G | 0.18 |
| G21A A77U U102C | 0.63 |

| Variant | self-cleavage |
| --- | --- |
| A22G A30G A69G | 1.39 |
| G21A G48A A117G A141G | 1.06 |
| A22G A69G G127A | 0.82 |
| G21A A43G U45G | 1.38 |
| G21A U29C A30U A43U U62C A136U | 0.07 |
| A22G U29C A117G | 0.55 |
| A22G U39A A142G | 0.84 |
| G21A C38U U132C | 1.92 |
| A22G U87C U96C A141G C145U | 2.63 |
| U23C A136G U143C | 2.04 |
| U23C A57U G75U | 0.11 |
| A22G A57G U85A | 0.2 |
| A22U C99U G125A | 0.54 |
| U20G A65C U102C | 0.15 |
| A22G U62A C99U U134C U143A | 0.12 |
| U23A A31U G41U | 1.65 |
| U20C U96C A121C | 0 |
| U23C U39C A64G U85G | 0.34 |
| G21U A43U U52C A78G U81C | 2.3 |
| U23C G35A U46C U47C | 1.41 |
| G21A A65G C99U A142G | 0.08 |
| U23A A30U A140G | 0.57 |
| G21A C56U U85G U115A A140G | 0.01 |
| A22G U87A U119C A141G | 0.13 |

| Variant | self-cleavage |
| --- | --- |
| G21U U26C A43U G139A | 1.22 |
| U23C G114A U134C | 1.09 |
| A22G A57U A79G | 0.15 |
| A22U A50G A77G U85A | 0.04 |
| A22G U47C U100C | 1.67 |
| A22G U45C A57U U62C U85C U115A | 0 |
| A22G A42G A78G | 0.57 |
| A22G U23C U102A C118U | 1.02 |
| U20G C63U G75A U96A A107U | 0.08 |
| U23C U26C A65U A67U U104C | 0.42 |
| A22G U87A G114A | 0.02 |
| A22G A141G A142U | 1.23 |
| U23C A43G U134A | 1.27 |
| U23C C90G A117U | 0.09 |
| U23C U26A A77G C103U | 2.28 |
| U23C C71U U119C G127C A136U | 0.8 |
| A22G U39A A138G | 1.9 |
| A22U U39A A78G A79U U102A | 1.04 |
| A22G A94G C120A | 0.6 |
| U20C U112C U119A | 1.8 |
| U23C G35U U143C | 1.36 |
| A22U A94U A124C | 0.4 |
| A22G U62A U96C U102A A140G | 0.09 |
| U23C U47A A65G A107G | 0.16 |

| Variant | self-cleavage |
| --- | --- |
| A22G A31U A69U G70A U112C | 0.14 |
| A22G U39C A69U | 0.22 |
| A22U C56U A69G | 0.12 |
| U23A A107G A142G | 2.13 |
| U23C G33U A94G A141G | 0.66 |
| A22G U62C U100A | 0.06 |
| A22U A50U U81A U119C A141G | 1.99 |
| U23C G32C A129U | 1.4 |
| G21A U100A A138C | 0.64 |
| U23C U47C G74A | 1.19 |
| A22U U46A U52C | 0.87 |
| G21A A57U A64U A67G | 0.05 |
| A22G C128G A138G | 1.34 |
| U20G U100A A107U | 0.65 |
| U20C U100C G144A | 1.38 |
| A22G C63U A129G | 0.22 |
| A22G C28U G55U A77G | 0.37 |
| U23C U29C A140G | 0.27 |
| A22G U62G A69U G144A | 0 |
| A22G U91C U104G A141G | 0 |
| U23A U26C A138G | 0.15 |
| U23C U46C U132C | 2.22 |
| U23C A78C A138U A141G | 1.84 |
| U20C U109C A121U | 1.28 |

| Variant | self-cleavage |
| --- | --- |
| A22G A59U A94G U112C C131A | 1.62 |
| A22U A24C A78G | 1.71 |
| A22G U46C G125U | 0.94 |
| A22U G32U A67G U91C U100A | 0.12 |
| A22U G83U U112C U130C A140G | 1.16 |
| A22G A43C U47A U115C A129U | 0.66 |
| U23C A31G A59U A142G | 1.84 |
| A22G G36A U73C | 1.11 |
| A22C C71U U119C | 1.27 |
| A22U A69G U87A | 0.09 |
| G21A U39C U100C | 2.07 |
| A22G G97A A142G | 0.05 |
| A22G A50C A69G U134A A142G | 0 |
| A22G U39C A78G U102C | 0 |
| U20C U108A U112C | 1.28 |
| G21A U87C U112C | 0.1 |
| G21A A24U U130A | 1.37 |
| A22U A57U C99U C113A | 0.01 |
| A22U U47C A78G | 1.33 |
| A22U A57U A94G | 0.18 |
| A22C A57U G93A | 0 |
| U20G G32A A69U A142G | 0.12 |
| A22G U52C A124G | 0 |
| A22G U46C A64G U112A | 0.36 |

| Variant | self-cleavage |
| --- | --- |
| A22G G58A U85C | 0.17 |
| A22U C28A A69G U81A U96G | 0.1 |
| U23C C90A U115A | 0.02 |
| U23C A30U A92G | 0.16 |
| U23C U26A G72U U130A | 1.63 |
| A22G A43G A107G | 0.8 |
| A22U A67U U119C | 0.24 |
| A22G U39C U102C U132A U143C | 2.16 |
| U23C A64G U87A A129G | 0.25 |
| A22U U96C U134A | 0.04 |
| U20C U130C U143G | 2.41 |
| A22U G82A A141G | 1.44 |
| A22G U26C G36U G53A G97C U109C A138G | 0.03 |
| A22G G135A A140G | 0.96 |
| A22U A31U C66U U81C U108C | 0.13 |
| A22G A57U A67C U100C U109C | 0.27 |
| U23C A24G U39C U96A | 1.38 |
| A22U U62C C90U | 0.03 |
| U20C U108C A140G | 2.83 |
| U23A A31G A42G U81A | 2.24 |
| A22G G40A A50G A138U | 0.89 |
| A22G U26A G49C U115C | 1.18 |
| U23C A24C U91C | 1.84 |
| G21A U45C U52A A94U U115C A141G | 0.16 |

| Variant | self-cleavage |
| --- | --- |
| U23A A64G G89A U100C G139A | 0.16 |
| A22G G36A U87C U109C U132A A138G U143C | 0 |
| A22G U29C A30G | 2.04 |
| A22U G75A A121G A136G | 1.71 |
| A22U U39C U130A | 1.24 |
| A22U A42G U62C G97A A107U A140G | 0.01 |
| U23C A43G C68U C84U U100C A121G | 0.02 |
| U23C U47A A141G | 1.46 |
| U23A C128G A129C | 0.91 |
| U23A U45A U47A U100C | 2.53 |
| A22G U46C G48U A138U | 0.85 |
| U23C A129G A142G | 1.6 |
| G21A U39A U47C A136G | 1.44 |
| A22G A64G U102C A138G A142G | 0 |
| U23C G49A A69G | 0.75 |
| U23C C56U A69G A79G U104A U109A A142G | 0 |
| U23A A30U A117G | 1.08 |
| A22U U115C C128U | 1.14 |
| A22G A43G U134A | 1.84 |
| A22G U87C U119C | 1.31 |
| U23C C37A U81C | 0.93 |
| A22G U87A U119C | 0.08 |
| A22C U102C U130C | 1.28 |
